Assay results from paper PMC3749138.
These are yes or no findings as the source states them, for the method shown. Binding seen in cells or lysates may run through a third protein. Some entries that bind do so weakly or less than the wild type. Sequences can lack the tags named with a protein.

Amino acid sequences for entries named in this document (tags omitted).
UniProt P06730: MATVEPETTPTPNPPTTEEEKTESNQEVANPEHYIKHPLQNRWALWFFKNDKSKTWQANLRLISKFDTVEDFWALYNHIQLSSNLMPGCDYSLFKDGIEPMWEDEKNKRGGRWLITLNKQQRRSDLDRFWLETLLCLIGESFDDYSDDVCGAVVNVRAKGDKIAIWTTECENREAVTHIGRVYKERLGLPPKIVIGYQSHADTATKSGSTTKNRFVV
UniProt O60573: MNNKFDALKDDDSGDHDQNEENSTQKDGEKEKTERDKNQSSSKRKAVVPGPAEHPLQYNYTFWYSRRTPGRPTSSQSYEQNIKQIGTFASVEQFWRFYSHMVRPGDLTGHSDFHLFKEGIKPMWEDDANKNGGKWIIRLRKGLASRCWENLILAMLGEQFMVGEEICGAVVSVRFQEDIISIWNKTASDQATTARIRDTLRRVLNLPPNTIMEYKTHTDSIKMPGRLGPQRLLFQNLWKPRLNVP

Target: T1, GFP-4E-T (human eIF4E-transporter, wild type) (human) (UniProt Q9NRA8)
T1 sequence: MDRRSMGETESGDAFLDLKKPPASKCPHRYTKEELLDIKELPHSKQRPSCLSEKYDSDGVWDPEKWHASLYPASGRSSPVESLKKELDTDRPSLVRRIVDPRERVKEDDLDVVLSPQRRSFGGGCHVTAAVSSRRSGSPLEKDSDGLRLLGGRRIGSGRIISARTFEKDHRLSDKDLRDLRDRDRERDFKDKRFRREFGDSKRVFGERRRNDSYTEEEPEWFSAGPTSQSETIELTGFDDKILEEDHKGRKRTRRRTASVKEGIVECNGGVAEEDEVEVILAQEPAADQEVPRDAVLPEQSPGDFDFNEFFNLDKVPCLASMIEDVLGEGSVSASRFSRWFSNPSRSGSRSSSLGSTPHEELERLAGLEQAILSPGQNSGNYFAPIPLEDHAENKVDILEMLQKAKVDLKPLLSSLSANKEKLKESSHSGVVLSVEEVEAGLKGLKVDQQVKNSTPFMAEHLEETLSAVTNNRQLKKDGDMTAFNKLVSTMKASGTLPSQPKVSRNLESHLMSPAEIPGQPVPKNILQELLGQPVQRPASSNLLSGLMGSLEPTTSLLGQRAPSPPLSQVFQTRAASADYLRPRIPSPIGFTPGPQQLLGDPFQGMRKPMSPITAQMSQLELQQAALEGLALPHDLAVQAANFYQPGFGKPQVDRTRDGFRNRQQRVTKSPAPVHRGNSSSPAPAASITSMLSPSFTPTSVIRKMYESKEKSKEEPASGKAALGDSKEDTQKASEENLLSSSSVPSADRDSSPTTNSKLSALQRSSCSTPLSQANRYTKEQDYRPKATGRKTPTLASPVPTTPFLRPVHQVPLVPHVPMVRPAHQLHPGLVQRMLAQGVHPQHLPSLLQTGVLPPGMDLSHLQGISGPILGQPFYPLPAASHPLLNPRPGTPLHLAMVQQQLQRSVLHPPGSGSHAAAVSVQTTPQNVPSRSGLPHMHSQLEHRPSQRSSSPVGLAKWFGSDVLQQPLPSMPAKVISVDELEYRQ
Experiment: pull-down; GFP-Trap magnetic beads with 1 mg lysate of cells transfected with GFP-4E-T, NET buffer (50 mM Tris-HCl pH 7.5, 150 mM NaCl, 1 mM EDTA, 0.5% Nonidet P-40, 0.25% gelatin), 1.25 h at 4°C; western blotting with eIF4E1, eIF4E2 and 4E-T antibodies

Substance	binding
eIF4E1 (endogenous) (from UniProt P06730 1-217)	binds
eIF4E2 (endogenous) (from UniProt O60573 1-245)	binds
